# According to publication PMC5550695:
# These are yes or no findings as the source states them, for the method shown. For part of these data: In cells and extracts the contact can be indirect. Some entries that bind do so weakly or less than the wild type. For part of these data: Sequences can lack the tags named with a protein.
# T1: Arabidopsis MKKK20, split-YFP fusion for BiFC (Arabidopsis thaliana) (UniProt Q9SND6)
# T1 sequence: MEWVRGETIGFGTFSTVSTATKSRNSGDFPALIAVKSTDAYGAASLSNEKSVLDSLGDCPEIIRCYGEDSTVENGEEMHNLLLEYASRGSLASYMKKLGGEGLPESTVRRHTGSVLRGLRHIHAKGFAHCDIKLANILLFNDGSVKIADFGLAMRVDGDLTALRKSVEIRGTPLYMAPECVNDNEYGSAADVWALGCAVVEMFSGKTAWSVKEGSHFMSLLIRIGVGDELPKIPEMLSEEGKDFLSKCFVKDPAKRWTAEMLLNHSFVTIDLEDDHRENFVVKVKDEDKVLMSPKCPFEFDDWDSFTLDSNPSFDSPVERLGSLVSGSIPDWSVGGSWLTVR
# T2: Arabidopsis MKKK20, GAL4 DNA-binding domain bait in pDEST32 (Arabidopsis thaliana) (UniProt Q9SND6)
# T2 sequence: T1 sequence
# B1: Arabidopsis MKK3, split-YFP fusion for BiFC (enzyme, UniProt O80396 1-520)
# chain: MAALEELKKKLSPLFDAEKGFSSSSSLDPNDSYLLSDGGTVNLLSRSYGVYNFNELGLQKCTSSHVDESESSETTYQCASHEMRVFGAIGSGASSVVQRAIHIPNHRILALKKINIFEREKRQQLLTEIRTLCEAPCHEGLVDFHGAFYSPDSGQISIALEYMNGGSLADILKVTKKIPEPVLSSLFHKLLQGLSYLHGVRHLVHRDIKPANLLINLKGEPKITDFGISAGLENSMAMCATFVGTVTYMSPERIRNDSYSYPADIWSLGLALFECGTGEFPYIANEGPVNLMLQILDDPSPTPPKQEFSPEFCSFIDACLQKDPDARPTADQLLSHPFITKHEKERVDLATFVQSIFDPTQRLKDLADMLTIHYYSLFDGFDDLWHHAKSLYTETSVFSFSGKHNTGSTEIFSALSDIRNTLTGDLPSEKLVHVVEKLHCKPCGSGGVIIRAVGSFIVGNQFLICGDGVQAEGLPSFKDLGFDVASRRVGRFQEQFVVESGDLIGKYFLAKQELYITNLD
# B2: Arabidopsis MPK18, split-YFP fusion for BiFC (enzyme, UniProt Q9C5C0 1-615)
# chain: MQQNQVKKGTKEMEFFTEYGDANRYRILEVIGKGSYGVVCAAIDTHTGEKVAIKKINDVFEHISDALRILREVKLLRLLRHPDIVEIKSIMLPPSKREFKDIYVVFELMESDLHQVIKANDDLTREHHQFFLYQMLRALKFMHTANVYHRDLKPKNILANANCKLKVCDFGLARVAFNDTPTTVFWTDYVATRWYRAPELCGSFFSKYTPAIDVWSIGCIFAEVLTGKPLFPGKSVVHQLELITDLLGTPKSETISGVRNDKARKYLTEMRKKNPVTFSQKFSKADPLALRLLQRLLAFDPKDRPTPAEALADPYFKGLSKIEREPSSQQISKMEFEFERRRLTKDDIRELIYREILEYHPQLLKDYMSGSEGSNFVYPSAIGHLRQQFTYLEENSSRNGPVIPLERKHASLPRSTVHSTVVHSTSQPNLGATDSRRVSFEPSKNGASSAGHPSTSAYPTKSIGPPPRVPPSGRPGRVVESSVSYENGRNLKEAYFRSAVSSPHCYFRPNTMTNPENRNIEASSFPPKPQNPVHQFSPTEPPAATTNQADVETMNHPNPYFQPQLPKTDQLNNNTHMAIDAKLLQAQSQFGPAGAAAVAVAAHRNIGTISYSAAS
# B3: Arabidopsis MKK10, GAL4-activating domain prey in pDEST22 (enzyme, UniProt Q9LQM8 1-305)
# chain: MTLVRERRHQEPLTLSIPPLIYHGTAFSVASSSSSSPETSPIQTLNDLEKLSVLGQGSGGTVYKTRHRRTKTLYALKVLRPNLNTTVTVEADILKRIESSFIIKCYAVFVSLYDLCFVMELMEKGSLHDALLAQQVFSEPMVSSLANRILQGLRYLQKMGIVHGDIKPSNLLINKKGEVKIADFGASRIVAGGDYGSNGTCAYMSPERVDLEKWGFGGEVGFAGDVWSLGVVVLECYIGRYPLTKVGDKPDWATLFCAICCNEKVDIPVSCSLEFRDFVGRCLEKDWRKRDTVEELLRHSFVKNR
# Columns and labels:
# [1] = target: T1, Arabidopsis MKKK20, split-YFP fusion for BiFC (Arabidopsis thaliana); assay: split reporter; BiFC with split YFP (pUC-SPYCE / pUC-SPYNE) in onion epidermal cells, transient transformation by microparticle bombardment, fluorescence microscopy
# [2] = target: T2, Arabidopsis MKKK20, GAL4 DNA-binding domain bait in pDEST32 (Arabidopsis thaliana); assay: two-hybrid; directed pairwise test, ProQuest system, yeast strain MaV203; DBD bait and AD prey introduced pairwise; HIS3 and URA3 activation scored by visual comparison to the controls
Binder,binding [1],binding [2]
B1,binds,–
B2,binds,–
B3,–,no binding
